Experimental findings from patent US20210145806A1, “Methods of Treating Brain Cancer and Related Diagnostic Methods” (Emory University, priority 2019, published 2021) are described below.

Experiment [1] deals with SHH-activated MB cells (DAOY, UW228 and ONS-76). Put plainly: Soft agar colony formation assay (CFA). Particulars: for concentration at which colony formation is inhibited: composite of DAOY, UW228, ONS-76, compared to vehicle control.
In experiment [2] the test system is SHH activated MB cells (DAOY, UW228 and ONS-76). Put plainly: Proliferation of SHH activated human MB cells (mean/composite of all lines). Particulars: read-out: IC50, inhibition of proliferation.

Where only a bound is given, the exact number is not on record here.

`CC(NC(=O)C(C#N)=Cc1cccc(Br)n1)c1ccccc1` (centres unmarked) [WP1066, 3-(6-bromopyridin-2-yl)-2-cyano-N-(1-phenylethyl)acrylamide]: in experiment [1], the “inhibition of colony formation, in words” value is recorded as “inhibited colony formation” and the “concentration at which colony formation is inhibited” value was at least 1.5 µM.
Regarding `O=c1c(O)c(-c2ccc(O)c(O)c2)oc2cc(O)ccc12` [fisetin, 2-(3,4-dihydroxyphenyl)-3,7-dihydroxy-4H-chromen-4-one], in experiment [1], the “inhibition of colony formation, in words” value is listed as “inhibited colony formation”. Besides, the IC50 in experiment [2] came out at 3.8 µM.
Consider `N.N.[Cl][Pt][Cl]` [cisplatin], for which the “concentration at which colony formation is inhibited” value in experiment [1] was at least 2 µM.
